Measured values published in US20240050583A1, “PROTEIN-DRUG CONJUGATE AND SITE-SPECIFIC CONJUGATING METHOD” (HARBOUR BIOMED (SHANGHAI) CO., LTD, priority 2020, published 2024).

Tests used:
[1] = Melting temperature (Tm1) of proteins by DSF; format: physicochemical; conditions: minimum melting temperature
Experimental: Differential scanning fluorimetry (DSF) is a commonly used high-throughput method for determining the thermostability of proteins. In this method, changes in the fluorescence intensity of the dye that binds to unfolded protein molecules were monitored using a real-time quantitative fluorescence PCR instrument to reflect the denaturation process of the protein and thus to reflect the thermostability of the protein. In this example, the melting temperature (Tm) of a protein molecule was measured by DSF. 10 μg of protein was added to a 96-well PCR plate (Thermo, #AB-0700/W), followed by the addition of 2 μL of 100× diluted dye SYPRO™ (Invitrogen, #2008138), and then the mixture in each well was brought to a final volume of 40 μL by adding buffer. […] The FRET scanning mode was used and data analysis was performed using Bio-Rad CFX Maestro software to calculate the Tm of the sample.
The antigen-binding protein derived from PR004433 in Table 0-3 was expressed and purified according to the method described in 0, and the SEC-HPLC method described in 0 was used to analyze the purity and the DSF method described in 0 was used to determine the minimum melting temperature (Tm1). It can be seen that after the hinge region sequence of HCAb PR004433 is replaced with variant sequences of various linker peptides, and Cys6 and Cys2 are separated by at least 3 other amino acids, the variant sequences derived from PR004433 can be effectively expressed, and the expression yield and thermostability Tm1 of the vast majority of variant molecules are not affected.

[2] = Protein purity and polymers by SEC-HPLC; conditions: purified antigen-binding protein; PR004433 from CHO, variants from HEK293
Experimental: In this example, analytical size-exclusion chromatography (SEC) was used to analyze the protein sample for purity and polymer form. An analytical chromatography column TSKgel G3000SWxl (Tosoh Bioscience, #08541, 5 μm, 7.8 mm×30 cm) was connected to a high performance liquid chromatography HPLC (Agilent Technologies, Agilent 1260 Infinity II) and equilibrated with a PBS buffer at room temperature for at least 1 h. A proper amount of the protein sample (at least 10 μg) was filtered through a 0.22 μm filter membrane and then injected into the system, and an HPLC program was set: the sample was passed through the chromatography column with PBS buffer at a flow rate of 1.0 mL/min for a maximum of 25 min. The detection wavelength was 280 nm. Operation was performed at room temperature. After being recorded, the chromatogram was integrated using ChemStation software and relevant data were calculated. An analysis was generated, with the retention time of the components with different molecular sizes in the sample reported.

[3] = Molecular weight and coupling product components (DAR) by LC-MS; conditions: coupling product with mc-vc-PAB-MMAE, without HIC purification
Excerpt: In this example, liquid chromatography-mass spectrometry (LC-MS) was used to analyze the protein sample for molecular weight. Those skilled in the art can use different models of liquid chromatography (LC) and mass spectrometer (MS) to establish similar analytical methods according to the technical instructions and through experimental exploration. Only representative methods are listed in this example.
In certain specific embodiments, determination of the molecular weight of a protein sample required desaccharification on the sample to remove modifications such as saccharide chains, for example, the sample was processed with glycosidase PNGase F (NEB, #P0705L) at 37° C. for at least 4 h. For example, in all examples of the present invention, when the molecular weight of protein samples was determined, unless otherwise emphasized, the protein samples to be tested were subjected to desaccharification by the glycosidase PNGase F.
In certain specific embodiments, determination of the reduced molecular weight of a protein sample required reduction on the sample, for example, the sample was processed with […] dithiothreitol (DTT) at 37° C. for 10 min. For example, in all examples of the present invention, the samples after reduction were called reduced samples, and the samples without reduction were called non-reduced samples.
Buffer A was 0.1% formic acid FA dissolved in water, and buffer B was 0.1% formic acid FA dissolved in acetonitrile. Injection: about 1 μg; flow rate: 0.3 mL/min; and operation temperature: 80° C. When reduced samples were tested, buffer A and buffer B were mixed within 12 min to form a linear gradient: using 10-60% B for the first 8 min and 80% B for the last 4 min. When non-reduced samples were tested, buffer A and buffer B were mixed within 9 min to form a linear gradient: using 15-60% B for the first 6 min and 80% B for the last 3 min.
Buffer A was 0.1% formic acid FA dissolved in water, and buffer B was 0.1% formic acid FA dissolved in acetonitrile. Injection: about 10 μL; flow rate: 0.2-0.5 mL/min; and operation temperature: 80° C. The detection wavelength was 214 nm.
In certain specific embodiments, the model of a mass spectrometer used was AB Sceix X500B, and the operating mode thereof was TOF-MS; when reduced samples were tested, a scanning range was 600-4000 m/z; when non-reduced samples were tested, a scanning range was 900-6000 m/z. Original mass spectrums were deconvolved by Sceix OS software to obtain molecular weight maps.
In certain other specific embodiments, the model of a mass spectrometer used was Waters Xevo G2-XS Q-TOF, and a molecular weight scanning range thereof was 500-4000 Da. Original mass spectrums were deconvolved by Water MaxEnt or Agilent MassHunter BioConfirm software.
In multiple specific embodiments of the present application, the combination set of different LC and MS conditions was used to achieve LC-MS combination for determining the molecular weight of protein samples. For example, in 0 and 0, the combination of conditions used was (chromatography column: ACQUITY UPLC Protein BEH C4; LC instrument: Waters Acquity UPLC; MS instrument: Waters Xevo G2-XS Q-TOF).

| Molecule | DSF Tm1 (° C.) [1] | SEC-HPLC purity (%) [2] | Average DAR ([3]; TCEP 1.5 equivalents) | Average DAR ([3]; TCEP 2.0 equivalents) | Average DAR ([3]; TCEP 3.0 equivalents) | Average DAR ([3]; TCEP 4.0 equivalents) | Average DAR ([3]; TCEP 5.0 equivalents) | Average DAR ([3]; TCEP 6.0 equivalents) |
| --- | --- | --- | --- | --- | --- | --- | --- | --- |
| PR006034: PR004433 variant, linker peptide Hinge4_1, SEQ ID NO: 109 (antibody) heavy: EVQLVETGGGLIQPGGSLRLSCAASGFTVSDSYMTWVRQAPGKGLEWVSVIFSGGRTYYSDSVKGRFTISRDNAKNTLYLQMNSLRAEDTALYYCARRNYDDTRGTDVFDIWGQGTMVTVSSEPKSCTGKM[not shown - human IgG1 Fc] | 55.2 °C | 99.65% | 1.53 | 1.90 | 2.41 | 2.94 | 3.21 | 3.69 |
| PR006037: PR004433 variant, linker peptide Hinge5_2, SEQ ID NO: 112 (antibody) heavy: EVQLVETGGGLIQPGGSLRLSCAASGFTVSDSYMTWVRQAPGKGLEWVSVIFSGGRTYYSDSVKGRFTISRDNAKNTLYLQMNSLRAEDTALYYCARRNYDDTRGTDVFDIWGQGTMVTVSSEPKSCQAESR[not shown - human IgG1 Fc] | 55.4 °C | 98.95% | 1.30 | 1.36 | 1.68 | 2.03 | 2.20 | 2.35 |
| PR006312: PR004433 variant, linker peptide Hinge7_19, SEQ ID NO: 120 (protein, PR006312 chain) EVQLVETGGGLIQPGGSLRLSCAASGFTVSDSYMTWVRQAPGKGLEWVSVIFSGGRTYYSDSVKGRFTISRDNAKNTLYLQMNSLRAEDTALYYCARRNYDDTRGTDVFDIWGQGTMVTVSSEPKSCSYLFGRV[not shown - human IgG1 Fc] | 52.8 °C | 99.18% | 1.98 | 2.10 | 2.36 | 2.53 | 2.52 | – |
| PR006040: PR004433 variant, linker peptide Hinge6_4, SEQ ID NO: 115 (antibody) heavy: EVQLVETGGGLIQPGGSLRLSCAASGFTVSDSYMTWVRQAPGKGLEWVSVIFSGGRTYYSDSVKGRFTISRDNAKNTLYLQMNSLRAEDTALYYCARRNYDDTRGTDVFDIWGQGTMVTVSSEPKSCAPVRPW[not shown - human IgG1 Fc] | 54.6 °C | 98.65% | 1.63 | 1.91 | 2.25 | 2.60 | 2.7 | 2.95 |
| PR006317: PR004433 variant, linker peptide Hinge9_7, SEQ ID NO: 125 (protein, PR006317 chain) EVQLVETGGGLIQPGGSLRLSCAASGFTVSDSYMTWVRQAPGKGLEWVSVIFSGGRTYYSDSVKGRFTISRDNAKNTLYLQMNSLRAEDTALYYCARRNYDDTRGTDVFDIWGQGTMVTVSSEPKSCASMNRGGGG[not shown - human IgG1 Fc] | 55.0 °C | 99.33% | 1.90 | 2.36 | 2.90 | 3.21 | 3.68 | – |
| PR006314: PR004433 variant, linker peptide Hinge8_18, SEQ ID NO: 122 (protein, PR006314 chain) EVQLVETGGGLIQPGGSLRLSCAASGFTVSDSYMTWVRQAPGKGLEWVSVIFSGGRTYYSDSVKGRFTISRDNAKNTLYLQMNSLRAEDTALYYCARRNYDDTRGTDVFDIWGQGTMVTVSSEPKSCSSDVVGGR[not shown - human IgG1 Fc] | 55.2 °C | 99.34% | 1.18 | 1.44 | 1.84 | 2.31 | 2.59 | – |
